Assay results reported in the supplement of paper PMC12217912.
Some of the results follow. The full chains were built here from the parent and the listed change. Inactive controls read about 0.05.

B1: TEV protease; numbered along this chain (parent)
chain: MGESLFKGPRDYNPISSSICHLTNESDGHTTSLYGIGFGPFIITNKHLFRRNNGTLVVQSLHGVFKVKDTTTLQQHLVDGRDMIIIRMPKDFPPFPQKLKFREPQREERICLVTTNFQTKSMSSMVSDTSCTFPSGDGIFWKHWIQTKDGQCGSPLVSTRDGFIVGIHSASNFTNTNNYFTSVPKNFMELLTNQEAQQWVSGWRLNADSVLWGGHKVFMVKPEEPFQPVKEATQL

Variants of: B1
Assay: raw area under fraction-flipped curve 0-4 h after induction (AUC4h, not background-subtracted), DNA-recorder readout of cleavage of the substrate (dimensionless); higher = more cleavage of the substrate by the protease variant
Details: temperature: 34 °C; time window: 0-4 h after rhamnose induction
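Also: Bxb1 expression induced with 0.2% (w/v) L-rhamnose at OD600 near 0.5, cultures sampled hourly, flipped fraction per protease–substrate barcode pair counted by paired-end Illumina sequencing.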

| Variant | area with substrate CNLYFQS | area with substrate DNLYFQS | area with substrate GNLYFQS | area with substrate HNLYFQS | area with substrate INLYFQS | area with substrate LNLYFQS | area with substrate NNLYFQS | area with substrate PNLYFQS | area with substrate VNLYFQS | area with substrate WNLYFQS | area with substrate FNLYFQS | area with substrate KNLYFQS | area with substrate MNLYFQS | area with substrate SNLYFQS | area with substrate TNLYFQS | area with substrate YNLYFQS | area with substrate RNLYFQS | area with substrate QNLYFQS |
| --- | --- | --- | --- | --- | --- | --- | --- | --- | --- | --- | --- | --- | --- | --- | --- | --- | --- | --- |
| S201A | 0.0701 | 0.0581 | 0.068 | 0.0719 | 0.0675 | 0.0587 | 0.0633 | 0.0655 | 0.0775 | 0.0644 | – | – | – | – | – | – | – | – |
| E223M | 0.0554 | 0.0906 | – | 0.0532 | – | 0.0753 | – | – | 0.0618 | – | 0.0562 | 0.0458 | 0.071 | 0.0717 | 0.0463 | – | – | – |
| E223H | 0.0781 | 0.0861 | 0.0813 | 0.0507 | – | 0.0594 | 0.0815 | – | 0.0717 | – | 0.0694 | 0.0661 | 0.067 | – | 0.0574 | – | – | – |
| L190R | 0.0784 | 0.0729 | – | 0.065 | 0.041 | 0.0635 | 0.0665 | – | 0.0531 | 0.0416 | – | – | 0.0624 | 0.0613 | – | 0.0731 | – | – |
| V210S | 0.0541 | 0.0534 | 0.0601 | – | 0.0567 | – | 0.0803 | – | – | 0.0634 | 0.035 | 0.0565 | 0.0417 | – | 0.0552 | 0.0457 | – | – |
| V210L | 0.0441 | 0.0535 | – | 0.0536 | – | 0.0588 | – | 0.0453 | 0.0781 | 0.0626 | – | 0.0881 | – | 0.064 | 0.076 | 0.0588 | – | – |
| V210Q | 0.0647 | 0.0595 | 0.067 | 0.0628 | – | 0.0613 | 0.0627 | 0.0655 | – | 0.0539 | 0.0609 | 0.0616 | 0.0545 | 0.0663 | 0.0676 | 0.0557 | 0.055 | – |
| V210C | 0.0629 | 0.0574 | 0.0495 | 0.0597 | 0.0628 | – | – | 0.0565 | 0.0546 | 0.0664 | – | 0.0638 | – | 0.051 | 0.0598 | 0.0534 | – | 0.0604 |
| M219Y | 0.0718 | 0.103 | – | – | – | – | 0.0649 | – | – | 0.0561 | – | 0.0677 | – | 0.0678 | 0.0691 | – | – | – |
| M219G | 0.0514 | 0.0771 | 0.0665 | 0.0535 | 0.0658 | 0.0592 | 0.0826 | 0.0551 | 0.0535 | 0.0461 | 0.0505 | 0.0581 | 0.061 | – | 0.0536 | 0.0619 | 0.0494 | 0.0657 |
| M219I | 0.0644 | 0.0893 | 0.009 | 0.0633 | 0.0555 | 0.0677 | 0.0534 | 0.0555 | – | – | 0.0391 | 0.0641 | 0.0543 | 0.0663 | 0.0649 | 0.0546 | – | – |
| W199C | 0.0649 | 0.0681 | – | 0.054 | 0.0587 | 0.0596 | – | 0.0684 | 0.064 | 0.0561 | – | – | – | 0.0704 | 0.0422 | – | 0.0616 | – |
| W199R | 0.0555 | 0.057 | 0.0686 | 0.0466 | 0.0655 | 0.0616 | – | 0.0672 | 0.0469 | 0.0649 | – | – | 0.0574 | 0.0536 | 0.0568 | 0.0579 | – | – |
| W199L | 0.0484 | 0.0658 | – | 0.0543 | – | 0.0689 | – | 0.0608 | – | – | – | – | – | 0.0732 | 0.0517 | – | – | – |
| V229G | 0.076 | 0.0917 | 0.0598 | 0.0644 | – | 0.0734 | 0.0856 | 0.108 | 0.0865 | 0.0411 | 0.0312 | 0.0616 | 0.0651 | 0.0554 | 0.0629 | 0.0619 | – | – |
| G213L | 0.0618 | 0.0613 | – | – | 0.0595 | 0.0626 | 0.0499 | 0.0479 | 0.0479 | 0.0592 | 0.0498 | – | – | – | 0.0491 | 0.0778 | – | – |
| N206S | 0.0558 | 0.0651 | 0.0818 | 0.0634 | – | 0.0444 | – | 0.0679 | – | – | 0.0654 | – | 0.0627 | 0.0763 | 0.067 | 0.0511 | – | – |
| E195M | 0.0025 | 0.0671 | 0.0729 | 0.0618 | 0.0542 | 0.0594 | 0.076 | – | – | 0.0627 | – | – | – | – | 0.0614 | – | – | – |
| Q227S | 0.0759 | 0.0841 | – | 0.0656 | 0.0941 | – | 0.0745 | 0.0705 | 0.0547 | 0.0921 | 0.0598 | – | – | 0.0764 | 0.067 | 0.075 | – | 0.0829 |
| P225V | 0.0708 | 0.0703 | 0.044 | 0.0576 | – | 0.0737 | – | 0.0227 | – | 0.0532 | 0.0667 | 0.0606 | – | – | 0.0616 | – | 0.0726 | 0.0733 |
| P225D | 0.067 | 0.0061 | – | 0.0614 | 0.0799 | 0.0625 | – | 0.0594 | – | 0.0701 | – | – | 0.0684 | – | 0.0582 | 0.0472 | – | – |
| P225L | 0.0725 | 0.0812 | – | 0.0724 | – | – | 0.0633 | 0.0864 | 0.0711 | 0.0468 | 0.0652 | – | 0.0661 | – | 0.0834 | 0.0325 | – | – |
| P225A | 0.0527 | 0.0852 | 0.0627 | 0.0578 | – | 0.0686 | – | 0.0678 | 0.0524 | 0.0687 | – | – | 0.0504 | 0.0673 | 0.0643 | 0.0693 | 0.0594 | – |
| Q194T | 0.0599 | 0.116 | 0.0602 | 0.0782 | – | 0.0731 | 0.075 | 0.0596 | 0.0753 | 0.0507 | 0.0886 | 0.12 | – | – | 0.0534 | 0.0657 | – | 0.0749 |
| Q194L | 0.0741 | 0.0729 | – | 0.0671 | 0.0752 | – | – | 0.0562 | – | 0.0558 | 0.0718 | 0.0725 | 0.0673 | – | 0.0651 | – | – | 0.0565 |
| P228V | 0.0651 | 0.0879 | 0.074 | – | – | 0.0696 | – | – | 0.0732 | 0.0682 | 0.0635 | – | – | – | 0.0618 | – | 0.0814 | – |
| P228Q | 0.0756 | 0.0854 | 0.0651 | 0.0676 | 0.0551 | 0.0584 | 0.0573 | – | 0.0737 | 0.063 | 0.0664 | 0.0694 | 0.0696 | 0.068 | 0.0582 | 0.0608 | – | 0.0711 |
| P228H | 0.0689 | 0.0543 | 0.0588 | 0.0719 | 0.0629 | 0.0667 | – | – | – | – | 0.0609 | – | – | – | 0.0742 | – | 0.0601 | – |
| S209F | 0.0709 | 0.0861 | 0.0797 | 0.0801 | 0.0847 | – | 0.055 | – | 0.107 | 0.0669 | – | 0.0784 | 0.0719 | 0.0753 | 0.0765 | 0.0558 | – | – |
